“And” between values parts separate entries of the source, which are not always exact repeats. Equal entries are not always repeated. Screen size: about 390,000 compounds; about 17,000 (4.4%) were called active. The shares of active, inactive and inconclusive entries below differ from those in the screen. The call rests on the fitted dose curve; in most records, active means well fitted inhibition curve with a large enough effect; inconclusive means small, poorly fitted or top-dose-only effect; inactive means no such curve, though single readings can be large or run the other way. Potencies beside an inconclusive call are fits to weak or partial responses and may not hold up.
What follows are compounds tested against Lysine-specific demethylase 4A (Homo sapiens) (UniProt O75164) (assay: qHTS Assay for Inhibitors of JMJD2A-Tudor Domain). Settings: AlphaScreen JMJD2A-Tudor / H3K4me3 peptide binding; activity change, negative = inhibition: at 114 µM (top of the series).
Further: nearly all actives have a fitted effect of over 50% in size.
On the % scale 0 is the no-effect control and ±100 the full control effect; potency means the concentration at half of the fitted maximal effect; tags describe the fitted curve by direction and shape.

Sequence of UniProt O75164 (O75164 whole entry, looked up, the tested form may be a part): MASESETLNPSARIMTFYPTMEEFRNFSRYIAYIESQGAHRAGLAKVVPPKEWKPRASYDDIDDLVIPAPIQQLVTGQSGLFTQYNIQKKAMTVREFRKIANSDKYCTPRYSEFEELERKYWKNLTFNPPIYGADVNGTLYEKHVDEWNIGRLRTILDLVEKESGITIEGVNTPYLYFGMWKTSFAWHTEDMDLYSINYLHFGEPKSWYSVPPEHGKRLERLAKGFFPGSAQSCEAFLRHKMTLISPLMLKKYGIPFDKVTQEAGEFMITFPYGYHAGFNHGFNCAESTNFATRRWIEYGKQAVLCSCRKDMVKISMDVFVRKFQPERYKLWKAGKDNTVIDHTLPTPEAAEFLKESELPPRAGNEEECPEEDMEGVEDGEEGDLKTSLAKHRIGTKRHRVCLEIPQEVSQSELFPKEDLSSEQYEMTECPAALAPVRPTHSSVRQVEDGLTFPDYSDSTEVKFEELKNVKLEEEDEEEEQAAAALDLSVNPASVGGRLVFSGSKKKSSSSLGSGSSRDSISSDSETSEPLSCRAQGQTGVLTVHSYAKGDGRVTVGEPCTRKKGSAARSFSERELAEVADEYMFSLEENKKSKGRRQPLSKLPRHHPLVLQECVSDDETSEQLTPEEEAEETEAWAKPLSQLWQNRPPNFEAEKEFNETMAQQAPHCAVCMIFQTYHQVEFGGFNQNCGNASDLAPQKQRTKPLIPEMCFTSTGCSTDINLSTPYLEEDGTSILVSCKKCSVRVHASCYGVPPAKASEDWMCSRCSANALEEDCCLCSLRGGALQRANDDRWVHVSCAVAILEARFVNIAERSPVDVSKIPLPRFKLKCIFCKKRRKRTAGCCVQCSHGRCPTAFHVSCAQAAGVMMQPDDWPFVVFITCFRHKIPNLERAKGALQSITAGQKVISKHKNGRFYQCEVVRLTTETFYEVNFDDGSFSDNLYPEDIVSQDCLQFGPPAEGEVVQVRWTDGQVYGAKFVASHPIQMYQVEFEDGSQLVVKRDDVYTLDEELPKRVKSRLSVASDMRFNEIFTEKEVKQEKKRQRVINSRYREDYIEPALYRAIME

SMILES	activity change, negative = inhibition	Potency
Cc1ccc(CN(C(=O)c2ccc(OCC(C)C)cc2)c2ccccn2)o1	inactive: -12.3%	–
OC(CNC1CCCCCC1)COc1cccc2ccccc12 (stereo unspecified)	–	active: 3.55 µM
COc1ccc(N2CCN(C(=O)CCCOc3cc(=O)n(C)c4ccccc34)CC2)cc1	–	inconclusive: 89.1 µM [inhibitor, partial curve]
CC(=O)C1=C(O)C(=O)N(c2ccc(Br)cc2)C1c1ccc([N+](=O)[O-])cc1 (stereo unspecified)	–	inconclusive: 63.1 µM [inhibitor, partial curve, poor fit]
N#Cc1c(N)sc(=S)c2c1CCCC2	–	inconclusive: 56.2 µM [inhibitor, partial curve]
COc1ccc2ccccc2c1C1CC(=O)N2CN(Cc3ccco3)CSC2=C1C#N (stereo unspecified)	–	inconclusive: 50.1 µM [inhibitor, partial curve]
CC1CCCCC1NC(=O)CSc1nnc(-c2ccncc2)n1CCCN(C)C (stereo unspecified)	–	active: 3.55 µM
CC1(C)CC(=O)C2=C(C1)NC(=S)C(C#N)C21CCCCC1 (stereo unspecified)	–	active: 7.94 µM
O=[N+]([O-])c1ccc(O)c(Nc2ncnc3ccccc23)c1	–	inconclusive: 89.1 µM [inhibitor, partial curve]
COC(=O)[C@H](Cc1c[nH]c2ccccc12)NC(=O)Cc1c[nH]c2ccccc12	–	inconclusive: 70.8 µM [inhibitor, single point]
CCc1ccccc1S(=O)(=O)Cc1ccc(C(=O)NCc2ccc3c(c2)OCO3)o1	inactive: -12%	–
CCOC(=O)c1c(C)[nH]c2c1cc(O)c1ccccc12	–	inconclusive: 56.2 µM [inhibitor, partial curve]
N/N=C/C(=N\Nc1ccc(Cl)cc1)C(=O)c1ccncc1	–	inconclusive: 25.1 µM [inhibitor, partial curve]
Cc1cc(OC(=O)c2ccc(Cl)cc2)cc(=O)n1C	–	inconclusive: 89.1 µM [inhibitor, single point]
Cc1ccc(-c2nn(-c3cccc(F)c3)cc2CNCc2cccnc2)o1	–	inconclusive: 56.2 µM [inhibitor, partial curve]
CCCn1cnc2cc(NCc3cccc(OC)c3)ccc21	–	inconclusive: 56.2 µM [inhibitor, partial curve]
Cc1cc(C(=O)COC(=O)C2=NNC(=O)CC2)c(C)n1CCc1ccccc1	–	inconclusive: 79.4 µM [inhibitor, partial curve]
COc1ccc(NC(=O)CC(NC(C)c2ccccc2)C(=O)O)cc1 (stereo unspecified)	–	inconclusive: 89.1 µM [inhibitor, single point]
COc1ccc(S(=O)(=O)Oc2ccc3cccc(N)c3c2)cc1	–	inconclusive: 10 µM [inhibitor, partial curve]
O=C(OCC(=O)N1c2ccccc2Sc2ccccc21)c1ccc[n+]([O-])c1	inactive: -16.3%	–
O=C1Nc2ccc([N+](=O)[O-])cc2OC1CCN1CCN(c2ccccc2)CC1 (stereo unspecified)	–	inconclusive: 56.2 µM [inhibitor, partial curve]
CC(C)c1nnc(NC(=O)Cc2cccs2)s1	inactive: -28.6%	–
COc1ccc(N2CCN(C(=O)CN(c3ccc(Br)cc3)S(C)(=O)=O)CC2)cc1	–	inconclusive: 63.1 µM [inhibitor, partial curve, poor fit]
Oc1c(Br)cc(Cl)cc1C=Nc1ccccc1Br	inactive: -20.5%	–

SMILES	activity change, negative = inhibition	Potency
Cc1ccc(N(CC(=O)NCc2ccc3c(c2)OCO3)S(C)(=O)=O)cc1	–	inconclusive: 3.55 µM [inhibitor, full curve, poor fit]
COc1cccc(C(=O)/C=C/Nc2ccc(S(=O)(=O)Nc3nc(C)cc(C)n3)cc2)c1	inactive: -18.5%	–
O=C(O)c1cnn2c1C(=O)N(Cc1cccs1)CC2	–	inconclusive: 31.6 µM [inhibitor, single point]
O=c1c2cc(Br)ccc2[nH]c(=S)n1Cc1ccccc1	inactive: -5.63%	–
COC(=O)CN1C(=O)[C@H]2[C@@H](/C=C/c3ccccc3)N3C(=O)CN(Cc4ccccc4)C(=O)[C@@]3(C)[C@H]2C1=O	inactive: -27.3%	–
COC(=O)C1=C(C)N(Cc2ccccc2)C(=NCC(C)C)N[C@H]1c1cccc(C(F)(F)F)c1	–	active: 35.5 µM
O=C(COc1ccc(S(=O)(=O)N2CCc3ccccc32)cc1Cl)NCc1ccccn1	–	active: 44.7 µM
O=C(Nc1cc(-c2ccccc2)[nH]n1)c1ccc(Cl)cc1	inactive: -3.19%	–
CN(CCOc1ccc(CC2SC(=O)NC2=O)cc1)c1ccccn1 (stereo unspecified)	–	inactive and inconclusive: 89.1 µM [inhibitor, single point]
CSc1cccc(NC(=S)N(CCCN2CCC(C)CC2)Cc2cccs2)c1	–	inconclusive: 112 µM [inhibitor, partial curve, poor fit]
COc1ccc(C(=O)Nc2oc(-c3ccccc3)c(-c3ccccc3)c2C#N)cc1	–	inconclusive: 17.8 µM [inhibitor, single point]
COc1ccccc1C(=O)NC(=O)COC(=O)c1ccc(Cl)cc1[N+](=O)[O-]	inactive: -5.52%	–
COc1ccc(N2CCN(CCCn3c(=S)[nH]c4ccccc4c3=O)CC2)cc1	–	inconclusive: 50.1 µM [inhibitor, partial curve]
COc1ccc(C)cc1-n1c(-c2ccc(Cl)cc2)cc2c1CC(C)(C)CC2=O	–	inconclusive: 3.55 µM [inhibitor, full curve]
O=C(Cn1ccc2cc(S(=O)(=O)N3CCCCCC3)ccc21)NCc1ccccc1Cl	inactive: -11.7%	–
O=C1/C(=C\c2ccccn2)SC(=S)N1Nc1ncc(C(F)(F)F)cc1Cl	–	active: 56.2 µM
CC1CN(C(=O)C(C)Sc2nc3ccccc3s2)CC(C)O1 (stereo unspecified)	inactive: -14.5% [at 11.4 µM]	–
O=c1cc(-c2ccc(C3CCCCC3)cc2)[nH][nH]1	–	inconclusive: 11.2 µM [inhibitor, full curve]
COc1ccc([N+](=O)[O-])cc1NC(=O)CSc1ccccc1	inactive: -8.4% [at 11.4 µM]	–
CN(C)S(=O)(=O)c1ccc2nnn(O)c2c1	–	inconclusive: 22.4 µM [inhibitor, full curve]
O=C(CCCN1C(=O)/C(=C/c2cccc(Br)c2)SC1=S)N1CCOCC1	–	inconclusive: 50.1 µM [inhibitor, partial curve]
Cc1ccc[n+](CC(=O)Nc2cc(C(F)(F)F)ccc2Cl)c1	inactive: -4.65%	–
O=C1c2oc3ccccc3c(=O)c2C(c2cccnc2)N1Cc1ccco1 (stereo unspecified)	inactive: 0.735%	–
COc1cc(N=Nc2c(O)c3ccccc3[nH]c2=O)c(OC)cc1N=Nc1ccccc1	–	inconclusive: 50.1 µM [inhibitor, partial curve]

SMILES	activity change, negative = inhibition	Potency
O=[N+]([O-])c1ccc(S(=O)(=O)NCCc2ccncc2)cc1	inactive: -2.08%	–
COc1ccc(OC)c(CN2CCC(C(=O)N3CCOCC3)CC2)c1	–	active: 2.24 µM
CCc1ccccc1N1C(=O)c2cccc3c(N4CCOCC4)c([N+](=O)[O-])cc(c23)C1=O	–	inconclusive: 14.1 µM [inhibitor, full curve]
CN1CCN(CCC(=O)N2c3ccccc3Sc3ccc(C(F)(F)F)cc32)CC1	–	inconclusive: 89.1 µM [inhibitor, single point]
CCOc1ccc(-n2c(C)cc(/C=C3/C(=N)N4C(=NC3=O)SN=C4S(C)(=O)=O)c2C)cc1	–	inconclusive: 50.1 µM [inhibitor, partial curve]
Clc1ccc(-c2nnc(SCc3cn4ccsc4n3)n2CC2CCCO2)cc1 (stereo unspecified)	–	inconclusive: 5.01 µM [inhibitor, full curve]
Cc1cccn2c(=O)nc(SCC(=O)NCc3ccc4c(c3)OCO4)nc12	inactive: -13.1%	–
Cc1ccccc1NC(=S)NNC(=O)c1cccnc1	–	active: 22.4 µM
CC(C)N(Cc1ccccc1)C(=O)c1nc(-c2ccc(Cl)cc2)n2c1CCCCC2	–	active: 44.7 µM
COc1cc(/C=C/C(=O)NCCn2c(C)cc3ccccc32)cc(OC)c1OC	–	inconclusive: 89.1 µM [inhibitor, partial curve]
CSc1nc(SCCO)c2sc3nc(-c4ccco4)c4c(c3c2n1)CC(C)(C)OC4	–	inconclusive: 44.7 µM [inhibitor, partial curve]
O=C(CSCc1ccccc1Br)NNC(=S)NCc1ccco1	–	inconclusive: 56.2 µM [inhibitor, partial curve]
CCN(CC)S(=O)(=O)c1ccc(NC2c3ncccc3C(=O)N2Cc2ccccc2)cc1 (stereo unspecified)	–	active: 28.2 µM
Cc1[nH]c2ccccc2c1NC(=O)CN1CCN(c2cccc(C(F)(F)F)c2)CC1	–	inconclusive: 79.4 µM [inhibitor, partial curve]
NC(=S)N/N=C/c1c(O)c(Br)cc2oc3c(c12)CCCC3	–	inconclusive: 17.8 µM [inhibitor, full curve]
COc1ccc(C)cc1N1C(=N)/C(=C2/Nc3ccccc3S2)C(c2ccccc2)C1=O (stereo unspecified)	–	inconclusive: 39.8 µM [inhibitor, partial curve]
CSc1ccccc1C(=O)NCc1ccc(S(N)(=O)=O)cc1	inactive: -1.2%	–
CC1CCCc2sc3nc(N4CCN(CCO)CC4)n4ncnc4c3c21 (stereo unspecified)	–	inconclusive: 63.1 µM [inhibitor, partial curve]
CC(C)[C@H](NC(=O)OCc1ccccc1)C(=O)OCC(=O)N1CCCCC1	inactive: -6.9%	–
COc1ccc(N2CCN(CCC(O)c3ccc4ccccc4c3)CC2)cc1 (stereo unspecified)	–	active: 50.1 µM
Cc1cc(N=Nc2ccc3ccccc3c2)ccc1O	–	active: 44.7 µM
COc1cc(-c2nc(-c3ccc(NC(=O)c4ccc5c(c4)OCO5)cc3)no2)cc(OC)c1OC	–	inconclusive: 63.1 µM [inhibitor, partial curve, poor fit]
COc1cccc(CNC(=O)C2CCCN(S(=O)(=O)c3ccc4c(c3)C(C)(C)C(=O)N4C)C2)c1 (stereo unspecified)	inactive: -9.66%	–
